# Experimental data taken from article PMC6919601, “Identification of Plasmodium dipeptidyl aminopeptidase allosteric inhibitors by high throughput screening” (PLoS ONE, 2019).
# Among all 110,000 compounds or so, about 230 (0.21%) showed an effect of 50% or more. Some of the results follow.
# Molecular target: DPAP1 (Plasmodium falciparum, UniProt Q8IIJ9)
# Assay: primary screen, percent inhibition; read by cleavage of a fluorogenic dipeptide substrate; higher = more effect of the substance
# Design: species or system P. falciparum D10 trophozoite lysates; single well
# 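Further: 30 min substrate incubation versus DMSO and 10 µM JCP410 controls.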
# Sequence of DPAP1 (Q8IIJ9 whole entry, looked up): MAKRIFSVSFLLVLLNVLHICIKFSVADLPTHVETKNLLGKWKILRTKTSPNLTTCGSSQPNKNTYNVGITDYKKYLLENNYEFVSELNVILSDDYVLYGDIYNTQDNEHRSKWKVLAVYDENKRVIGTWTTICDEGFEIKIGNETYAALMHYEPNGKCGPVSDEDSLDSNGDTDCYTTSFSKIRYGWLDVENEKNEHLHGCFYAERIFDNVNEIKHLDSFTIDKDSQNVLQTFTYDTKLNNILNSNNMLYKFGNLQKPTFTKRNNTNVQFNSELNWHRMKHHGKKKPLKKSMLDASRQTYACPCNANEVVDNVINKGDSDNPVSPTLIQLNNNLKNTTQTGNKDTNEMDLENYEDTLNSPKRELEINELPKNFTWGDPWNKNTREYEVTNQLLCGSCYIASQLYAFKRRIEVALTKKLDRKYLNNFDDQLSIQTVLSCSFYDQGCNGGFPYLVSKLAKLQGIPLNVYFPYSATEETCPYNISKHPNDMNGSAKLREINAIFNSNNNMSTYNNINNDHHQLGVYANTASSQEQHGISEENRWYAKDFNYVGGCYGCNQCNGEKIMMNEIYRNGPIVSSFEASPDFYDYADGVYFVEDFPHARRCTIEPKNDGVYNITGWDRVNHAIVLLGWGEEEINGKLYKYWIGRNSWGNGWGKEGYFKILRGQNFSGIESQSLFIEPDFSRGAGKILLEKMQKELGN
row,SMILES,% Inhibition @ 10 uM [%]
1,COc1ccc(C(=O)CSc2nsc(SCC(=O)c3ccc(OC)cc3)c2C#N)cc1,3.39
2,COc1ccc(C(=O)NCc2nnc(SCC(=O)N3CCC(Cc4ccccc4)CC3)o2)cc1,4.1
3,CCc1ccccc1NC(=O)CN(C)S(=O)(=O)c1ccc(Br)cc1,-9.11
4,Cc1nn(-c2ccc(C(=O)O)cc2)c2c1C(=O)CC(C)(C)C2,-0.865
5,Cn1cc(NC(=O)NCCCN2CCCCCC2)c2ccccc2c1=O,-2.68
6,COc1cc(S(=O)(=O)n2c(C)nc3ccccc32)c(C)cc1C,0.528
7,CCCC(=O)NCCNC(=O)c1c(O)oc2ccccc2c1=O,-5.46
8,COc1ccc(CNCc2ccc(SC)cc2)cc1,-1.96
9,Cc1cccc(NC(=O)C2CCN(S(=O)(=O)c3cccc4cccnc34)CC2)n1,5.1
10,Cc1cccc(-n2c(SCC(=O)O)nnc2-c2cccs2)c1C,-9.6
11,O=C(Nc1cc(Cl)cc(Cl)c1)c1ccc2c(c1)OCCO2,6.1
12,CCN1CCN(C(CNC(=O)c2ccc(F)cc2)c2cccnc2)CC1 (centres unmarked),1.68
13,Cc1ccc(CNc2nc3c(S(=O)(=O)c4ccc(C)cc4)nnn3c3ccsc23)cc1,-2.85
14,Cc1cc2oc3c(c(=O)c2cc1C)C(c1ccc(OCC(N)=O)cc1)N(c1nc(C)c(C)s1)C3=O (centres unmarked),-1.33
15,COc1ccc(CCNC(=O)C2CCN(S(=O)(=O)c3cccs3)CC2)cc1OC,-0.601
16,COc1cc(C2Nc3ccc4ncccc4c3C3=C2C(=O)CC(C)(C)C3)cc(OC)c1OC (centres unmarked),2.01
17,O=C(Nc1c2c(nn1-c1ccc(F)cc1)CS(=O)(=O)C2)c1ccco1,-4.49
18,Cc1nc2ccccc2c2oc(C(=O)NCCN(C)Cc3ccccc3)cc12,-0.0115
19,O=C(COc1ccc(Cl)cc1)Nc1nc(-c2ccc(S(=O)(=O)N3CCOCC3)cc2)cs1,-5.63
20,COc1cc(Br)c(CN2CCc3ccccc3C2)cc1OC,-5.31
21,O=S(=O)(NCC(c1ccccc1)N1CC=C(c2ccccc2)CC1)c1ccccc1 (centres unmarked),-4.19
22,O=C(c1ccco1)N1CC2(c3ccccc3)CN(C(=O)c3ccco3)CC(c3ccccc3)(C1)C2=O,-3.49
23,Cc1cc(-c2ccc(S(=O)(=O)N3CCN(Cc4ccccc4)CC3)s2)on1,-1.77
24,CCc1c(CN2CCN(C)CC2)csc1C,-6.36
25,Cc1sc2nc3n(sc4nc5sc(C)c(C)c5c(=O)n43)c(=O)c2c1C,-0.615
26,O=C(Nc1nc(-c2ccccc2)cs1)C1CCCN1C(=O)OCc1ccccc1 (centres unmarked),-1.96

row,SMILES,% Inhibition @ 10 uM [%]
1,CCOC(=O)N1CN(Cc2ccccc2)Cc2c1oc1ccccc1c2=O,2.41
2,CCOC(=O)c1cnc2c(CC)cccc2c1O,2.16
3,Cc1cc(N(C)Cc2ccccc2)nc2cc(O)ccc12,-1.08
4,CCCSc1nnc(NC(=O)c2nc(SC)ncc2Cl)s1,0.569
5,O=C(COc1ccccc1)N1CCN(C(=O)COc2ccccc2)CC1,-2.3
6,CCc1ccc(N2C(=O)c3ccccc3NC2(C)C)cc1,1.27
7,CCOc1ccc(CN2CCN(C/C=C/c3ccccc3)CC2)cc1,-3.13
8,COC(=O)c1sccc1NC(=O)COc1nsnc1N1CCOCC1,-2.19
9,COCCNC(=O)c1cc2c(Cl)ccc3c2n1CCO3,-5.16
10,O=C(Nc1ccccc1)Nc1ccc(S(=O)(=O)Nc2ccc(Br)cc2)cc1,2.82
11,Cc1nc(N2C(=O)C(O)=C(C(=O)c3ccccc3)C2c2cccs2)sc1C (centres unmarked),-2.6
12,COc1ccc(/C=C2/SC(=O)N(CC(=O)Nc3cccc4ccccc34)C2=O)cc1O,1.49
13,N#Cc1cc(-c2nc3ccccc3[nH]2)c(N)n2c1nc1ccccc12,-3.5
14,Cn1c(Nc2cccc(F)c2)cc(=O)n(C)c1=O,-4.93
15,COc1ccc(Cl)cc1-n1nnc(C(=O)O)c1C(=O)O,-1.58
16,O=C(c1ccccc1)N1CCN=C1c1ccccc1,4.32
17,COc1ccc(C2C(C(=O)Nc3cccnc3)=C(C)Nc3nc(-c4cccs4)nn32)cc1 (centres unmarked),5.37
18,N#Cc1cc2c(nc1S(=O)(=O)Cc1ccc(Cl)cc1)CCCC2,-3.75
19,Cc1nnc(N2CCC(C(=O)NCC3CCCO3)CC2)c2nn(-c3ccccc3)c(C)c12 (centres unmarked),1.63
20,Cc1cc(C2=CC(C)(C)NC(C)(C)C2)sc1C1=CC(C)(C)NC(C)(C)C1,-2.18
21,CC(=O)NC1(C(F)(F)F)C(=O)Nc2c1c(=O)[nH]c(=O)n2-c1ccccc1 (centres unmarked),4.49
22,CNC(=O)C(=O)Nc1cccc(Br)c1,-4.01
23,COCCCN1C(=O)S/C(=C/c2sccc2C)C1=O,2.4
24,Cc1ccc(C(=O)Nc2nc3c(s2)CCCC3)o1,-11
25,COc1ccc2nc(O)c(CN(C)S(=O)(=O)c3ccc(C)cc3)cc2c1,-0.671
26,Cc1ccc2c(c1)C(=O)C(CN1CCOCC1)CO2 (centres unmarked),6.79

row,SMILES,% Inhibition @ 10 uM [%]
1,O=C(NCCCO)/C(=C\c1ccc(F)cc1)NC(=O)c1ccco1,14
2,CN(C)CCCN(C(=O)c1cccs1)c1nc2cc3c(cc2s1)OCO3,0.233
3,CN1C(=O)NC(=O)/C(=C/c2c[nH]c3ccccc23)C1=O,4.88
4,CCN1CCN(c2ccc(NC(=O)C3CC3c3ccccc3)cc2)CC1 (centres unmarked),0.774
5,COC(=O)c1ccc(Cl)c(-c2ccc(C(=O)N[C@@H](Cc3c(F)cccc3F)C(=O)NC3(C#N)CCOCC3)cc2)c1,19
6,COc1cc(NC(=O)c2ccc(Cn3nc(C)c(Cl)c3C)o2)cc(OC)c1,-2.87
7,CN(CCC#N)Cc1ccccc1,-0.902
8,O=C1N=C(Nc2ccc(Br)cc2)S/C1=C\c1ccc(O)c(O)c1,-4.59
9,COc1ccc(OC(C)C(=O)Nc2nccs2)cc1 (centres unmarked),2.94
10,COc1ccc(OC)c2c(C)cc(N3CCN(C(=O)c4ccc(Cl)cc4)CC3)nc12,-5.4
11,COc1ccccc1N(CC(=O)N1CCCCC1)S(=O)(=O)c1ccccc1,-7.27
12,O=C(c1cc2n(n1)C(C(F)(F)F)CC(c1ccc(Br)cc1)N2)N1CCCC1 (centres unmarked),5.12
13,O=S(=O)(c1ccccc1)n1ccc2cccnc21,-2.8
14,Oc1ccc(Br)cc1CN1CCc2ccccc2C1,1.26
15,Cc1ccccc1NC(=O)c1ccccc1N(C)S(=O)(=O)c1ccccc1,-3.09
16,CCOC(=O)C1=C(CN2CCN(C(=O)c3ccco3)CC2)NC(=O)NC1c1cccs1 (centres unmarked),-1.78
17,Nc1nc(NCc2c(F)cccc2Cl)nn1-c1ccccc1,3.48
18,Cc1ccc(C2Nc3ccccc3N=C3CC(c4ccc5c(c4)OCO5)CC(O)=C32)s1 (centres unmarked),0.64
19,CCN(CC)c1ccc(NC(=O)CC(C)C)cc1,-0.425
20,c1ccc2c(c1)CCN(Cc1csc3c1CCCC3)C2,-4.82
21,COc1cc(C2C(C#N)=C(N)Oc3[nH]nc(C45CC6CC(CC(C6)C4)C5)c32)ccc1O (centres unmarked),4.32
22,COc1ccc2c(c1C)CCC/C2=N\OC(=O)c1cc(OC)c(OC)c(OC)c1,3.16
23,O=c1cc(CSCc2ccc(Cl)cc2)nc2sc(-c3ccco3)nn12,-3.95
24,COCCCNCc1c(C(=O)O)n(Cc2ccc(C)cc2)c2ccccc12,1.93
25,O=C(COc1ccc(Cl)cc1Cl)Nc1c2c(nn1-c1ccc(F)cc1)CSC2,2.5
26,COC(=O)c1c(N)sc2c1CCN(C)C2,-4.35

row,SMILES,% Inhibition @ 10 uM [%]
1,Cc1cccc(C(=O)Nc2ccc(S(=O)(=O)N3CCOCC3)cc2)c1,-1.38
2,CC(C)C(=O)Nc1sc2c(c1C#N)CCC(C(C)(C)C)C2 (centres unmarked),-3.26
3,COc1ccc(Cl)cc1NC(=O)CCC1CCCC1,-3.45
4,CC(=O)NC1=NN(C(C)=O)C(c2ccccc2)S1 (centres unmarked),-0.736
5,CCOc1cccc2cc(-c3cc(=O)oc4cc(OC)ccc34)oc12,2.31
6,Cc1cc(C)c2c(n1)SCC(=O)N2CCCC(=O)NCCc1ccccc1,-0.637
7,CCc1nc2cc3sc(CC)nc3cc2s1,-2.91
8,COc1ccc(CCNC(=O)Cn2nc(C)c3sc4ccccc4c3c2=O)cc1OC,-3.6
9,CSc1nc2ccccc2n1Cc1ccccc1F,-3.09
10,CCOc1ccc(CNCc2cccnc2)cc1,-5.56
11,Cc1ccc2c(N)c(C(=O)Nc3ccccc3C(F)(F)F)sc2n1,0.755
12,CCCCN(CC)S(=O)(=O)c1ccc2nc(O)cc(C(=O)NCc3ccc(CC)cc3)c2c1,2.05
13,Cc1ccc(CNC(=O)Cc2coc3c(C)c(C)ccc23)cc1,2.62
14,CCOC(=O)c1cc2n(c1/N=C/N(C)C)-c1ccccc1C2=O,6.86
15,CC(=O)Nc1ccc(S(=O)(=O)NCc2ccc(F)cc2)cc1,0.214
16,Cc1ccc(C(C)C)c(OCC(=O)NCCc2nc3ccccc3[nH]2)c1,-9.6
17,O=C(NCc1cccs1)c1cc2cccc3c2n1CCS3,-3.29
18,NC(=O)CSc1nc2c(oc3ccccc32)c(=O)n1Cc1ccc(F)cc1,-3.33
19,CC(C)=CCCC(C)CN1CCN(c2ccc(Cl)cc2)CC1 (centres unmarked),-7.91
20,O=C(Nc1ccc(Cl)c(Cl)c1)OCCNS(=O)(=O)c1cccc([N+](=O)[O-])c1,11.6
21,COc1ccc(Cl)cc1NC(=O)c1ccc(N(C)S(=O)(=O)c2ccc(C)cc2)cc1,0.145
22,Oc1nc(NC2CCCCC2)nnc1Cc1ccc(Cl)cc1,-3.78
23,C=CCO/C(O)=C1/C(C)=Nc2ncnn2C1c1cccs1 (centres unmarked),-1.62
